Reference: PubChem BioAssay AID651820 (National Center for Advancing Translational Sciences (NCATS), 2012)
Hit rate of the full screen: of about 340,000 compounds, about 12,000 (3.5%) were called active. Inconclusive means that the source gave no clear call. Such entries were picked first, then a sample of the others. Calls come from the whole dose curve; as a rule, active = well fitted inhibition curve with a large enough effect; inconclusive = small, poorly fitted or top-dose-only effect, or another doubt; inactive = no such curve, though single readings can be large or run the other way. Potencies of inconclusive entries are left out as doubtful fits.

Test: qHTS Assay for Inhibitors of Hepatitis C Virus (HCV)
Details: Huh7.5.1 HCVcc-Cre (HCVcc is cell-culture hepatitis C virus) infection, luciferase reporter, 44 h; series mostly up to 41.8 µM
In short: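 Infectious HCV cell culture screen: compound-treated cells (1,000/well, pre-plated 4 h) are infected with HCVcc-Cre at roughly 0.5 moi and grown 44 h. Infection is quantified by luciferase signal after 15 min substrate incubation at room temperature.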
Potency is the fitted concentration of half-maximal effect; tags give direction and shape of the fitted curve.

Row | SMILES | Potency
1 | CCC(=O)Nc1ccc2c(c1)C(=O)c1ccccc1C2=O | inconclusive [inhibitor, partial curve]
2 | CC(C)N(C(=O)[C@H]1C[C@H](CC(=O)NCCc2ccccn2)C(=O)N2CCc3c([nH]c4cc(-c5ccco5)ccc34)[C@]12C)C(C)C | inconclusive [inhibitor, single point]
3 | CC(=O)c1cn(CC(=O)Nc2cccc(C)c2C)c2ccccc12 | inconclusive [inhibitor, partial curve]
4 | Cn1cc[n+](C)c1P(=S)(c1ccccc1)c1ccccc1 | inactive
5 | COc1ccc(S(=O)(=O)N2CCC(C(=O)Nc3ccccc3C)CC2)c2cccnc12 | inactive
6 | CCOC(=O)c1[nH]cnc1C(=O)N1CCN(C(=O)OC(C)(C)C)CC1 | inactive
7 | COc1cc(C(C)=O)ccc1OCC(=O)Nc1ccc(Cl)c(S(=O)(=O)N2CCOCC2)c1 | active: 12.6 µM
8 | Nc1c(Cl)cc(N=Nc2ccccc2)cc1Cl | inconclusive [inhibitor, single point]
9 | CCOc1ccccc1CN(Cc1ccco1)S(=O)(=O)c1ccc(-n2cnnn2)c(OC)c1 | inconclusive [inhibitor, partial curve]
10 | CC(=O)N1CC(=O)N(c2ccccc2)C1=O | inactive
11 | CCOC(=O)[C@@H]1[C@H]2COc3cc(OC)ccc3[C@H]2N2C(=O)N(c3ccc(F)cc3)C(=O)[C@]12C | inconclusive [inhibitor, single point]
12 | CN(c1ccccc1)S(=O)(=O)c1ccc(Cl)c(C(=O)Nc2ccncc2)c1 | inconclusive [inhibitor, full curve]
13 | O=C(Nc1ccc2ncccc2c1)c1cc(Cl)ccc1Cl | inconclusive [inhibitor, single point]
14 | Cc1ccccc1NC(=O)CS(=O)(=O)c1cn(CC(=O)N2CCOCC2)c2ccccc12 | inactive
15 | Cc1ccc(S(=O)(=O)Nc2ccc(O)c3ncccc23)cc1 | inconclusive [inhibitor, single point]
16 | Cc1onc(-c2ccccc2)c1C(=O)NNC(=S)NC(=O)/C=C/c1cccs1 | inconclusive [inhibitor, partial curve]
17 | COc1ccc(-c2ocnc2C(=O)Nc2ccc(N3CCOCC3)cc2N2CCOCC2)cc1OC | inconclusive [inhibitor, single point]
18 | COCCN(C(=O)COC(=O)/C=C/c1ccc(OC)c(OC)c1)c1c(N)n(Cc2ccccc2)c(=O)[nH]c1=O | inconclusive [inhibitor, partial curve]
19 | S=C(Nc1cc(Cl)cc(Cl)c1)N1CCCC1 | inactive
20 | CCOC(=O)C1=C(SCC(=O)Nc2ccccc2)NC(=O)C(C#N)C12CCCCC2 (centres undefined) | inconclusive [inhibitor, full curve]
21 | Cc1cccc(N2CCN(C(=O)CSc3ccsc3[N+](=O)[O-])CC2C)c1 (centres undefined) | inconclusive [inhibitor, partial curve]
22 | CSCCC(NC(=O)c1ccc(Cl)cc1Cl)C(=O)NCC(c1cccs1)N(C)C (centres undefined) | inactive
23 | CCOC(=O)CNC(=O)Cn1c(C)cc2ccccc2c1=O | inactive

Row | SMILES | Potency
24 | COc1ccc(NC(C)=O)c([N+](=O)[O-])c1[N+](=O)[O-] | inconclusive [inhibitor, single point]
25 | COc1cc(C(=O)Nc2nc3ccccc3[nH]2)ccc1OC(F)F | active: 8.91 µM
26 | CC(=O)N1CCc2cc(S(=O)(=O)NCCC(=O)N3CCc4ccccc4C3)ccc21 | inconclusive [inhibitor, single point]
27 | CN(C)CCCNC(=S)NCC(c1ccc(Cl)cc1Cl)c1c[nH]c2ccccc12 (centres undefined) | active: 11.2 µM
28 | C=CCn1c(SCC(=O)N2CCOCC2)nc2c([nH]c3ccccc32)c1=O | inconclusive [inhibitor, full curve, poor fit]
29 | Cn1nc(CC(=O)NCc2ccc(C(F)(F)F)cc2)c2ccccc2c1=O | inconclusive [inhibitor, partial curve]
30 | C#CCOCCOCCOCCNc1nc(N2CCN(C(=O)CCCCCCCCCCNC(=O)[C@@H](CCSC)n3cc(CCO)nn3)CC2)nc(N2CCN(C(=O)CCCCCCCCCCNC(=O)[C@H](CCCN=C(N)N)n3cc(C[C@@H](C)CC)nn3)CC2)n1 | inconclusive [inhibitor, single point]
31 | Cc1ccccc1OCCN(C#N)c1nc(N(C)C)nc(N(C)C)n1 | inactive
32 | Cc1cc(NC(=O)CSc2nnc(-c3ccccc3)c(-c3ccccc3)n2)no1 | inconclusive [inhibitor, partial curve]
33 | CCOC(=O)c1[nH]c2ccccc2c1NC(=O)c1ccco1 | inconclusive [inhibitor, partial curve]
34 | CCOc1ccc(N2C(=O)CNC2=S)cc1 | inactive
35 | CCOc1ccc(-c2nc(-c3cccnc3)no2)cc1OCC | inconclusive [inhibitor, partial curve]
36 | O=C(COC(=O)c1ccccc1OCc1ccc(F)cc1)NCC1CCCO1 (centres undefined) | inactive
37 | COC(=O)c1cc(Br)ccc1OC(=O)c1cccnc1 | inconclusive [inhibitor, single point]
38 | Cc1ccc(C(=O)N/C(=C\c2ccc(-c3cc(Cl)ccc3Cl)o2)C(=O)NCc2cccnc2)cc1 | active: 10 µM
39 | CCN(CC)S(=O)(=O)c1cccc(NC(=O)CSc2nnc(N)s2)c1 | inconclusive [inhibitor, single point]
40 | CC(=O)c1c(C)[nH]c(C(=O)CSc2nnc(NC3CC3)s2)c1C | inconclusive [inhibitor, partial curve]
41 | CC(C)OC(=O)CC(=O)CSc1nc2c(cc1C#N)CCCCC2 | inactive
42 | COc1ccc2[nH]c(=O)c(CN(Cc3cccs3)C(=S)Nc3ccccc3)cc2c1 | inactive
43 | CN(CC(=O)Nc1ccc(F)cc1)C(=O)C1CCN(S(=O)(=O)c2ccc3c(c2)OCCO3)CC1 | inconclusive [inhibitor, single point]
44 | CCc1nc(NCCN2CCOCC2)c(C#N)c2c1CCCC2 | inconclusive [inhibitor, partial curve]
45 | O=C(NCCNC(=O)c1ccccc1F)c1ccccn1 | inactive
46 | CC1(C)NC(=O)N(CC(O)CN2CCCCC2)C1=O (centres undefined) | inactive

Row | SMILES | Potency
47 | CCn1c(Cc2cccc3ccccc23)nnc1SCC(=O)Nc1nccs1 | inconclusive [inhibitor, full curve]
48 | Cc1ccnc(SCC(=O)n2c3c(c4ccccc42)CC(C)CC3)n1 (centres undefined) | inconclusive [inhibitor, partial curve, poor fit]
49 | COc1ccccc1N1CCN(C(=O)C2CCN(S(=O)(=O)c3ccc4c(c3)CC(C)N4C(C)=O)CC2)CC1 (centres undefined) | inactive
50 | CN(CCOc1ccc(Br)cc1)C(=O)CNC(=O)c1ccc2ccccc2c1 | inconclusive [inhibitor, single point]
51 | COc1ccc(OCC(=O)N2N=C(C(F)F)CC2(O)C(F)F)cc1 (centres undefined) | inactive
52 | COc1cc(CNCCc2ccc(S(N)(=O)=O)cc2)ccc1OCC(=O)N1CCCCC1 | inactive
53 | CCn1c(SCC(=O)c2c(N)n(C3CC3)c(=O)[nH]c2=O)nc2cc(S(N)(=O)=O)ccc21 | inconclusive [inhibitor, single point]
54 | C/C(=N\Nc1ccc(Cl)c(C(=O)O)c1)c1ccc(N2CCOCC2)cc1 | inactive
55 | CCOc1ccc(OCCNC(=O)c2oc3ccccc3c2COC)cc1 | inconclusive [inhibitor, partial curve]
56 | CCN1CCN(CCOc2cccc(Oc3ccccc3)c2)CC1 | inconclusive [inhibitor, single point]
57 | CCOC(=O)c1c(N)sc(C(=O)OC)c1C | inconclusive [inhibitor, single point]
58 | Cc1ccc(C)c(-c2csc(NC(=O)C3=COCCO3)n2)c1 | inconclusive [inhibitor, single point]
59 | Cn1c(=O)c2c(nc(Br)n2Cc2ccc3ccccc3c2)n(C)c1=O | inconclusive [inhibitor, single point]
60 | FC(F)(F)c1cccc(NC(=S)Nc2cccc(NC(=S)Nc3cccc(C(F)(F)F)c3)n2)c1 | active: 10 µM
61 | COc1ccc(C(=O)/C=C/C(=O)N(CC(=O)NCCC(C)C)Cc2cccs2)c(O)c1 | active: 11.2 µM
62 | COc1ccc(NC(=O)C23CC4CC(C2)CC(c2ccccc2)(C4)C3)c(OC)c1 | inconclusive [inhibitor, single point]
63 | COc1ccccc1CNn1c(-c2cccc(C)c2)nc2ccccc2c1=O | inconclusive [inhibitor, single point]
64 | COc1ccc(-c2nc(CCl)cs2)cc1 | inactive
65 | Cc1ccc(-c2ccc(CCC(=O)O)n2-c2ccc(O)cc2)cc1 | inactive
66 | Cc1ccc(-c2c(C(=O)Nc3ccccc3C)c(C)[nH]c(=S)c2C#N)o1 | inconclusive [inhibitor, single point]
67 | CCOc1ccc(-c2nc(S(=O)(=O)c3ccccc3)c(NCc3cccnc3)o2)cc1 | inconclusive [inhibitor, partial curve]
68 | CCCCCOC(=O)NCCOC(=O)Nc1ccc(C(=O)OCC)cc1 | inconclusive [inhibitor, partial curve]
69 | O=C(Nc1ccccc1)c1c2c(nc3ccccc13)CCCC2 | inconclusive [inhibitor, full curve]
